Measurements taken from patent US20250295802A1, “HER3 ANTIBODY-DRUG CONJUGATE AND USE THEREOF” (DUALITY BIOLOGICS (SUZHOU) CO., LTD., priority 2022, published 2025).

Experiments:
His-HER3 = biological target: T1, His-HER3 (Homo sapiens, UniProt P21860); assay: Binding kinetics by Biacore (SPR); conditions: antibody as ligand, analyte His-HER3, Biacore T200
T1 construct: His
Method: Affinity assay by surface plasmon resonance (SPR): antibody kinetics and affinity were determined using Biacore T200. Briefly, the recombinant human HER3 antibody was immobilized on a protein A chip (GE, Cat. 29-1275-5). The antigen concentration, from 50 nM to a final concentration of 0.78125 nM, was generated by 2-fold serial dilution, and affinity and kinetics were determined through the chip.
The binding affinity of humanized 3F8 (hu3F8) and chimeric 3F8. Binding kinetics of 3 humanized 3F8 clones and chimeric 3F8 were determined by Biacore. Three humanized 3F8 clones (clone 1, clone 2 and clone 3) had different heavy chains and one identical light chain. Clone 1, clone 2, and clone 3 corresponded to hu3F8-1, hu3F8-2, and hu3F8-3, respectively.
All data listed in Table 6 were processed using Biacore T200 evaluation software version 3.1.

HER3 [1] = biological target: T2, HER3 (Homo sapiens, UniProt P21860); assay: ELISA binding affinity after incubation at pH 3.5 (acid stress)
T2 construct: human Fc (huFc)
Method: (§1) ELISA assay: human HER2-ex-huFc, human HER3-huFc, and human EGFR-his were diluted to 2 μg/mL and 50 μL/well in a 96-well plate and incubated at 4° C. overnight. The plate was washed with 0.5×PBST, then incubated with 100 μL of a blocking buffer (PBS+3% BSA) at 37° C. for 2 h, and washed with 0.5×PBST. The 3F8 antibody was diluted with the blocking buffer in a 1:3 serial gradient, added at 50 μL/well, incubated at 37° C. for 40-50 min, and then washed with 0.5×PBST. Goat anti-mouse IgG-HRP (Southern Biotech, 1030-05) was diluted at 1:20000 with the blocking buffer, added at 50 μL/well, incubated in the dark for 30 min, and then washed with 0.5×PBST. Prior to assay, 50 μL of luminol buffer A+B was added to each well in a 1:1 mix.
(§2) Antibody stability test: the purified antibody at 5 mg/mL was stored at 4° C. as regular practice, incubated at 40° C. for 7 days and 14 days for heat stability evaluation, transferred to a glycine solution at pH 3.5 for regeneration, and stored for 2, 4 and 6 h for acid stability evaluation, or subjected to repeated freeze-thaw treatments for 4 or 6 cycles for freeze-thaw stability evaluation. Aggregation was measured by SEC-HPLC, and binding affinity was determined by ELISA.
Three clones of hu3F8 were incubated at pH 3.5 for 0, 2, 4 and 6 h, and then subjected to ELISA to measure the binding affinities.
EC50 assay of the three clones of hu3F8 after 0, 2, 4, and 6 h of incubation at pH 3.5. EC50 was determined by ELISA.

HER3 [2] = biological target: T2, HER3; assay: ELISA binding affinity after incubation at 40° C. (heat stress)
Method: as §1, §2
The three clones of hu3F8 were incubated at 40° C. for different times and then subjected to ELISA to determine the binding affinities. The chimeric antibody was subjected to parallel assay.
EC50 assay of the three clones of hu3F8 incubated at 40° C. for different times. The three humanized 3F8 antibody clones were incubated in normal saline at 40° C. for 7 or 14 days, and the binding affinities after heat stress test were determined by ELISA. The chimeric antibody 3F8 was subjected to parallel assay.

HER3 [3] = biological target: T2, HER3; assay: ELISA binding affinity after repeated freeze-thaw
Method: as §1, §2
Three clones of hu3F8 were freeze-thawed for 3 or 5 cycles, and then subjected to ELISA to measure the binding affinities. The chimeric antibody was subjected to parallel assay.

[4] = Aggregation by SEC-HPLC after stress test; format: physicochemical
Method: as §2
Aggregations of 3 clones of hu3F8 after stability test and their aggregation evaluations on storage at 4° C. Aggregations of the three hu3F8 antibodies after acid treatment, repeated freeze-thaw and incubation at 40° C. were determined by SEC-HPLC and compared to each of the antibodies stored at 4° C. All the clones retained more than 95% of monomer after stress test, indicating little tendency to aggregate.

MDA-MB-453 cells = assay: Internalization of antibody-drug conjugates with pHrodo in MDA-MB-453 cells; format: cell-based; conditions: 10 nM
Method: The up-taken of the antibody-drug conjugate of the present application against the HER3 target on MDA-MB-453 cells expressing HER3 was detected. The cell, the antibody-drug conjugate (ADC) with a fixed concentration, and an internalization indicating reagent pHrodo were co-incubated, and the endocytosis capacity of the antibody-drug conjugate was evaluated by observing the number of fluorescent signal bright dots generated by pHrodo which entered the cell along with the antibody-drug conjugate in the cell at different time points.
• 1. Cell culture: MDA-MB-453 cells were cultured using a 10% FBS Leibovitz's L-15 medium. • 2. Cell preparation: MDA-MB-453 cells in logarithmic phase were taken, washed with PBS once, and digested with 2-3 mL of Versene for 2-3 min. After the cells were digested completely, 10-15 mL of cell culture was added to elute the digested cells. The eluate was centrifuged at 1000 rpm for 5 min, and the supernatant was discarded. The resulting cells were resuspended in cell culture to give a single cell suspension, which was adjusted to a viable cell density of […] cells/mL. • 3. Cell plating: the cell suspension was added to a 96-well cell culture plate at 50 μL/well. The culture plate was incubated in an incubator for 18 h (37° C., 5% CO2). • 4. Sample adding: the test antibody-drug conjugate was co-incubated with Fab-pHrodo to form a complex, adjusted to a concentration of 10 nM, and added to the cells at 50 μL/well. • 5. Culturing of cells: the culture plate was incubated in an incubator for 2, 4, 6, 24, or 48 h (37° C., 5% CO2). • 6. Plate reading: when the corresponding time point was reached, the 96-well cell culture plate was taken out, Hoechst33342 was added to perform cell nucleus staining, the plate was placed in operatta CLS for photographing, and the number of cells and the number of fluorescent bright dots in each cell were read. The average number of cell fluorescent dots was calculated using Harmony® imaging and analysis software.

[5] = Antibody stored at 4° C., SEC-HPLC

B1: Clone 1: humanized 3F8; heavy chain SEQ ID NO: 11, light chain SEQ ID NO: 12 (antibody)
heavy: QVQLQESGPGLVKPSETLSLTCTVSGYSITSAYYWNWIRQPPGKGLEWIGYISYDGRNNFNPSLKNRVTISVDTSKNQFSLKLSSVTAADTAVYYCARDGDYDYFDYWGQGTTVTVSS[human IgG1 constant region left out]
light: DIQMTQSPSSLSASVGDRVTITCRASQDISNYLNWYQQKPGKAPKLLIYYTSILHSGVPSRFSGSGSGTDYTFTISSLQPEDIATYFCQQGDTLPPTFGGGTKLEIKRTVAAPSVFIFPPSDEQLKSGTASVVCLLNNFYPREAKVQWKVDNALQSGNSQESVTEQDSKDSTYSLSSTLTLSKADYEKHKVYACEVTHQGLSSPVTKSFNRGEC
His-HER3
  ka: 560000 M⁻¹ s⁻¹
  kd: 0.000612 s⁻¹
HER3 [1]; incubation time 0 hr
  EC50 after incubation at pH 3.5: 38.74 ng/mL
HER3 [1]; incubation time 2 hr
  EC50 after incubation at pH 3.5: 38.11 ng/mL
HER3 [1]; incubation time 4 hr
  EC50 after incubation at pH 3.5: 40.89 ng/mL
HER3 [1]; incubation time 6 hr
  EC50 after incubation at pH 3.5: 38.96 ng/mL
HER3 [2]; day 0
  EC50 after incubation at 40° C.: 0.03916 µg/mL
HER3 [2]; day 7
  EC50 after incubation at 40° C.: 0.04235 µg/mL
HER3 [2]; day 14
  EC50 after incubation at 40° C.: 0.041 µg/mL
HER3 [3]; 0 freeze-thaw cycles
  EC50 after freeze-thaw stress: 0.04541 µg/mL
HER3 [3]; 3 freeze-thaw cycles
  EC50 after freeze-thaw stress: 0.04429 µg/mL
HER3 [3]; 5 freeze-thaw cycles
  EC50 after freeze-thaw stress: 0.03858 µg/mL
[4]; [5]
  Dimer: 4.36%
  Monomer: 94.68%
  Tetramer: 0.96%
[4]; Day 7 at 40° C.
  Dimer: 4.22%
  Monomer: 95.02%
  Tetramer: 0.76%
[4]; Day 14 at 40° C.
  Dimer: 4.22%
  Monomer: 95.03%
  Tetramer: 0.75%
[4]; Freeze-thaw for 3 cycles
  Dimer: 4.41%
  Monomer: 94.63%
  Tetramer: 0.96%
[4]; Freeze-thaw for 5 cycles
  Dimer: 4.43%
  Monomer: 94.69%
  Tetramer: 0.88%
[4]; pH 3.5 for 2 h
  Dimer: 4.41%
  Monomer: 94.63%
  Tetramer: 0.96%
[4]; pH 3.5 for 4 h
  Dimer: 4.22%
  Monomer: 95.06%
  Tetramer: 0.73%
[4]; pH 3.5 for 6 h
  Dimer: 4.29%
  Monomer: 94.80%
  Tetramer: 0.91%

B2: ADC-2-X1: anti-Her3 antibody hu3F8-3 conjugated with linker-payload X1, DAR 7.01 (conjugate)
heavy: QVQLQESGPGLVKPSETLSLTCTVSGYSITSAYYWNWIRQPFGKGLEWMGYISYDGRNNFNPSLKNRVSISRDTSKNQFSLKLSSVTAADTATYYCARDGDYDYFDYWGQGTTVTVSS[human IgG1 constant region left out]
light: DIQMTQSPSSLSASVGDRVTITCRASQDISNYLNWYQQKPGKAPKLLIYYTSILHSGVPSRFSGSGSGTDYTFTISSLQPEDIATYFCQQGDTLPPTFGGGTKLEIKRTVAAPSVFIFPPSDEQLKSGTASVVCLLNNFYPREAKVQWKVDNALQSGNSQESVTEQDSKDSTYSLSSTLTLSKADYEKHKVYACEVTHQGLSSPVTKSFNRGEC
MDA-MB-453 cells; assay time 2 h
  Average number of fluorescence dots in cells: 1.4
MDA-MB-453 cells; assay time 4 h
  Average number of fluorescence dots in cells: 2.1
MDA-MB-453 cells; assay time 6 h
  Average number of fluorescence dots in cells: 2.5
MDA-MB-453 cells; assay time 24 h
  Average number of fluorescence dots in cells: 3.3
MDA-MB-453 cells; assay time 48 h
  Average number of fluorescence dots in cells: 3.5

B3: ADC-2-X2: anti-Her3 antibody hu3F8-3 conjugated with linker-payload X2, DAR 7.11 (conjugate)
heavy: QVQLQESGPGLVKPSETLSLTCTVSGYSITSAYYWNWIRQPFGKGLEWMGYISYDGRNNFNPSLKNRVSISRDTSKNQFSLKLSSVTAADTATYYCARDGDYDYFDYWGQGTTVTVSS[human IgG1 constant region left out]
light: DIQMTQSPSSLSASVGDRVTITCRASQDISNYLNWYQQKPGKAPKLLIYYTSILHSGVPSRFSGSGSGTDYTFTISSLQPEDIATYFCQQGDTLPPTFGGGTKLEIKRTVAAPSVFIFPPSDEQLKSGTASVVCLLNNFYPREAKVQWKVDNALQSGNSQESVTEQDSKDSTYSLSSTLTLSKADYEKHKVYACEVTHQGLSSPVTKSFNRGEC
MDA-MB-453 cells; assay time 2 h
  Average number of fluorescence dots in cells: 1.4
MDA-MB-453 cells; assay time 4 h
  Average number of fluorescence dots in cells: 2.1
MDA-MB-453 cells; assay time 6 h
  Average number of fluorescence dots in cells: 2.6
MDA-MB-453 cells; assay time 24 h
  Average number of fluorescence dots in cells: 2.6
MDA-MB-453 cells; assay time 48 h
  Average number of fluorescence dots in cells: 3.9
